# Test results as given in PubChem BioAssay AID588342 (National Center for Advancing Translational Sciences (NCATS), 2011).
# About 25,000 (6.9%) of roughly 360,000 compounds were called active. This list was built around the results that the source calls inconclusive (neither active nor inactive); the mix of calls is not that of the screen. Calls come from the whole dose curve; as a rule, active = well fitted inhibition curve with a large enough effect; inconclusive = small, poorly fitted or top-dose-only effect; inactive = flat fitted curve, though single readings scatter. Potencies beside an inconclusive call are fits to weak or partial responses and may not hold up.
# Molecular target: Luciferin 4-monooxygenase (Photinus pyralis) (UniProt P08659)
# Assay: qHTS profiling assay for firefly luciferase inhibitor/activator using purifed enzyme and Km concentrations of substrates (counterscreen for miR-21 project); note: nearly all actives have a fitted effect of over 55% in size
# Details: purified FLuc, luminescence inhibition; series mostly up to 57.5 µM
# How it was run: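 Purified P. pyralis luciferase (10nM final) with 10uM D-luciferin and 10uM ATP (Km levels) in 50mM Tris acetate pH 7.5, 10mM Mg acetate, 0.01% Tween-20, 0.05% BSA; qHTS 6-point titration, ~60 µM downward; luminescence read.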
# Potency is the fitted concentration of half-maximal effect; tags give direction and shape of the fitted curve.
# Sequence of UniProt P08659 (P08659 whole entry, looked up): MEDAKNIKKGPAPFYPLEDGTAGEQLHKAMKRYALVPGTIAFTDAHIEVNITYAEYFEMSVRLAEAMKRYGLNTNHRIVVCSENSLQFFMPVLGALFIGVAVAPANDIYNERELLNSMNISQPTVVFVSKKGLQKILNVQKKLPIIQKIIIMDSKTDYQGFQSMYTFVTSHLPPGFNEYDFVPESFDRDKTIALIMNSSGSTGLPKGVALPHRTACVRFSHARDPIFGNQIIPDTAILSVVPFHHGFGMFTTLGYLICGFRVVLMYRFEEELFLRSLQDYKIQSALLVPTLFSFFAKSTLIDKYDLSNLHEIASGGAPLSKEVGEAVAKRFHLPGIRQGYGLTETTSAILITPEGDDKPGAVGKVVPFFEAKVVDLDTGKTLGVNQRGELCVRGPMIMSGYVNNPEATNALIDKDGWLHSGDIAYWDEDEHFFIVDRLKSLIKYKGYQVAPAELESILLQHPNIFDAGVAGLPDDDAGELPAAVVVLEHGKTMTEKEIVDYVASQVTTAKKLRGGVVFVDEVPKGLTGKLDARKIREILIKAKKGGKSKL
row,Compound,Potency
1,C/C(=N\NC(=O)c1ccccc1F)c1cccc(NC(=O)c2ccccc2)c1,active: 2.69 µM
2,Cc1ccc2nc(=O)c(NNc3ccccc3)cnc2c1,"inconclusive: 9.53 µM [inhibitor, partial curve, poor fit]"
3,O=C(O)c1cccc(Nc2ccnc(Nc3cccc(C(=O)O)c3)n2)c1,active: 6.01 µM
4,COc1ccc(OCc2nnc(SCC(=O)NC3CC4CCC3C4)o2)cc1 (configuration not stated),"inconclusive: 21.3 µM [inhibitor, single point]"
5,COc1ccc(/C=N/NC(=O)CCn2cnc3ccccc32)cc1,"inconclusive: 23.9 µM [inhibitor, single point]"
6,COc1ccc(C(=O)Nc2c(N)nc(SCC(=O)Nc3ccc(NC(C)=O)cc3)[nH]c2=O)cc1,inactive
7,Cc1ccc(-c2nc(CNC(=O)c3ccco3)cs2)cc1,"inconclusive: 21.3 µM [inhibitor, single point]"
8,CCOc1cc(C(=O)Nc2ccon2)cc(OCC)c1OCC,inactive
9,Cc1ccc(NC(=O)COCc2cc(-c3cccs3)on2)cc1Cl,"inconclusive: 13.5 µM [inhibitor, partial curve, poor fit]"
10,CC1CN(CC(O)COc2ccc(C#N)cc2)CCN1CC(O)COc1ccc(C#N)cc1 (configuration not stated),inactive
11,CCc1cc(=O)[nH]c(-n2[nH]c(-c3ccccc3)cc2=O)n1,"inconclusive: 23.9 µM [inhibitor, partial curve, poor fit]"
12,Cc1cc(NC2CCCCC2)nc2ccccc12,"inconclusive: 37.9 µM [inhibitor, single point]"
13,COc1ccc2nc(N/C(=N/S(=O)(=O)c3cccs3)c3ccccc3Cl)sc2c1,"inconclusive: 37.9 µM [inhibitor, single point]"
14,CCN(CC)CCNC(=O)c1nn(C)c2c1CS(=O)(=O)c1ccccc1-2,"inconclusive: 3.01 µM [inhibitor, partial curve, poor fit]"
15,O=S(=O)(Nc1ccc(N2CCOCC2)cc1)c1ccc(F)cc1F,inactive
16,COc1ccc2nc(NC(=O)CSc3nc(C)cc(=O)[nH]3)sc2c1,"inconclusive: 26.9 µM [inhibitor, single point]"
17,CC(=O)n1c(C=Nc2ccc(Cl)cc2)c(O)c2ccccc21,"inconclusive: 1.9 µM [inhibitor, full curve]"
18,CC1(C)CC(=O)C2=C(C1)c1c(ccc3ccccc13)NC2c1ccc(OCC(=O)O)cc1 (configuration not stated),"inconclusive: 37.9 µM [inhibitor, partial curve, poor fit]"
19,COc1ccc2oc(C(=O)OCC(=O)c3ccc4c(c3)OCCO4)c(C)c2c1,"inconclusive: 9.53 µM [inhibitor, partial curve]"
20,O=C(Nc1nc2nc(-c3ccccc3)cc(=O)n2[nH]1)c1ccc(Cl)cc1,"inconclusive: 8.49 µM [inhibitor, partial curve, poor fit]"
21,CCC(C)OC(=O)/C(C#N)=C\c1ccc(-c2ccccc2Cl)o1 (configuration not stated),"inconclusive: 7.57 µM [inhibitor, partial curve, poor fit]"

row,Compound,Potency
1,Nc1c(Cl)cc(-c2csc(NCCc3nc4cc(Cl)c(Cl)cc4n3CCCO)n2)cc1Cl,inactive
2,C[C@@H](O)CC(=O)O,inactive
3,C/C(=N\OCc1ccc(C#N)cc1)c1ccc(S(=O)(=O)N(C)C)cc1,active: 21.3 µM
4,Cc1ccc2oc(-c3cc(NC(=O)c4ccco4)ccc3Cl)nc2c1,"inconclusive: 30.1 µM [inhibitor, single point]"
5,COC(C(=O)N1CCC(CCC(=O)Nc2ccccc2)CC1)c1ccccc1 (configuration not stated),"inconclusive: 33.8 µM [inhibitor, single point]"
6,COc1ccc(-c2cn3nc(C)c(C)nc3n2)cc1OC,"inconclusive: 26.9 µM [inhibitor, partial curve]"
7,Cc1ccc(-c2nc3nc(C)cc(Nc4ccccc4O)n3n2)cc1,"inconclusive: 2.69 µM [inhibitor, full curve]"
8,N#Cc1ccc(C(=O)OCC(=O)Nc2cccc(S(=O)(=O)N3CCCCC3)c2)cc1,"inconclusive: 23.9 µM [inhibitor, partial curve, poor fit]"
9,CNC(=O)Nc1ccc(Cl)cc1,"inconclusive: 37.9 µM [inhibitor, partial curve, poor fit]"
10,C[C@@H](C(=O)NCCc1ccccc1F)N1C(=O)N2CCc3c([nH]c4ccccc34)[C@@]2(C)C1=O,"inconclusive: 33.8 µM [inhibitor, partial curve, poor fit]"
11,Cc1oc2ccc(O)c(CN(C)C)c2c1C(=O)c1ccccc1,"inconclusive: 26.9 µM [inhibitor, single point]"
12,CCn1cnc2cc(NCc3ccc(OC)cc3)ccc21,"inconclusive: 21.3 µM [inhibitor, partial curve]"
13,CC(=O)Nc1ccc(S(=O)(=O)N2CCN=C2SCc2ccc(C)cc2)cc1,"inconclusive: 37.9 µM [inhibitor, partial curve, poor fit]"
14,CC(=O)Nc1ccc(-c2csc(N3CCC(C(N)=O)CC3)n2)cc1,inactive
15,CNC(CC(=O)c1ccc([N+](=O)[O-])cc1)C(Cl)(Cl)Cl (configuration not stated),"inconclusive: 19 µM [inhibitor, partial curve]"
16,Cc1ccc(OCCn2cnc3ccccc3c2=O)c([N+](=O)[O-])c1,"inconclusive: 3.79 µM [inhibitor, full curve]"
17,Clc1ccc2oc(SCc3cccnc3)nc2c1,"inconclusive: 21.3 µM [inhibitor, single point]"
18,Cc1ccccc1NC(=O)c1c(C)nn(-c2ccccc2)c1Cl,"inconclusive: 16.9 µM [inhibitor, partial curve]"
19,C=CCN1C(=O)c2ccc(C(=O)Nc3ccccn3)cc2C1=O,"inconclusive: 10.7 µM [inhibitor, partial curve]"
20,CCCc1ccc(C(=O)NNc2cc(Cl)ccc2Cl)cc1,"inconclusive: 33.8 µM [inhibitor, single point]"
21,Cc1cc(OCC(=O)Nc2ccc3c(c2)OCCO3)cc(C)c1Cl,"inconclusive: 37.9 µM [inhibitor, single point]"
